Laboratory results reported in PubChem BioAssay AID2107 (National Center for Advancing Translational Sciences (NCATS), 2009).
Where “and” joins values, the source holds several entries; their conditions need not be identical. Identical values can stand only once. The whole screen tested about 240,000 compounds, of which about 20 (0.008%) were called active. Inconclusive means that the source gave no clear call. Such entries were picked first, then a sample of the others. The call rests on the fitted dose curve; in most records, active means well fitted inhibition curve with a large enough effect; inconclusive means small, poorly fitted or top-dose-only effect, or effect the other way; inactive means flat fitted curve, though single readings scatter. A potency beside an inconclusive call is a rough fit, not a confirmed value.

biological target: Alpha-galactosidase A (Homo sapiens) (UniProt P06280); assay: qHTS Assay for Inhibitors and Activators of Human alpha-Galactosidase From Spleen Homogenate; details: 4MU-alpha-Gal fluorescence, 40 min; series mostly up to 80 µM
From the text: NIH Chemical Genomics Center [NCGC] NIH Molecular Libraries Probe Production Centers Network [MLPCN] MLPCN Grant: R03 MH084842-01 Assay Submitter (PI): Wei Zheng NCGC Assay Overview: Alpha-galactosidase is a homodimeric glycoprotein that hydrolyzes the terminal alpha-galactosyl moieties from glycolipids and glycoproteins. Deficiency of this enzyme results in Fabry Disease with progressive accumulation of globotriaosylceramide and other glycosphingolipids in vascular endothelial cells that causes renal failure, myocardial infarction and stroke, and premature death in patients. It has been reported that the improper folding and trafficking of alpha-galactosidase resulting from genetic mutations may account for a significant number of Fabry patients. […] We optimized this alpha-galactosidase assay in 1536-well plate format for identification of novel small molecule inhibitors or activators with structures other than the sugar analogs in order to develop new pharmacological chaperones. In particular, this assay is directed towards discovering compounds active in more natural setting, tissue homogenate, that may have been missed by screens of the purified enzyme under more stringent conditions.
NCGC Assay Protocol Summary: This is a fluorogenic enzyme assay with 4-methylumbelliferyl-alpha-D-galactopyranoside as the substrate and human spleen homogenate containing alpha-galactosidase as the enzyme preparation. Upon hydrolysis of this fluorogenic substrate, the resulting product, 4-methylumbelliferone (which excites at 365 nm and emits at 440 nm) can be detected by a fluorescence plate reader. Data were normalized to the controls for basal activity (without enzyme) and 100% activity (with enzyme). The AC50 values were determined from concentration-response data modeled with the standard Hill equation. Assay buffer: 50 mM citric acid (titrated with potassium phosphate to pH 5.0), 0.01% Tween-20 (pH 5.0 is an optimal condition for this enzyme assay) 1536-well assay protocol for the alpha-galactosidase from human spleen homogenate: (1) Add 2 ul/well spleen homogenate (1 ug) (2) Add 23 nL compounds in DMSO solution. The final titration was 0.5 nM to 58 uM. (3) Add 2 ul of substrate (1 mM final) (4) Incubate at 37C for 40 min (5) Add 2 ul stop solution (1M NaOH and 1M Glycine mixture, pH 10) (6) Detect the assay plate in a ViewLux plate reader (PerkinElmer) with Ex=365 nm and Em=440nm. Keywords: Alpha-galactosidase, Fabry Disease, pharmacological chaperone, chaperone therapy, high throughput screening, alpha- galactosidase inhibitor, MLSMR, MLSCN, NIH Roadmap, qHTS and NCGC
Potency means the concentration at half of the fitted maximal effect; tags describe the fitted curve by direction and shape.

UniProt P06280, sequence (P06280 whole entry, looked up): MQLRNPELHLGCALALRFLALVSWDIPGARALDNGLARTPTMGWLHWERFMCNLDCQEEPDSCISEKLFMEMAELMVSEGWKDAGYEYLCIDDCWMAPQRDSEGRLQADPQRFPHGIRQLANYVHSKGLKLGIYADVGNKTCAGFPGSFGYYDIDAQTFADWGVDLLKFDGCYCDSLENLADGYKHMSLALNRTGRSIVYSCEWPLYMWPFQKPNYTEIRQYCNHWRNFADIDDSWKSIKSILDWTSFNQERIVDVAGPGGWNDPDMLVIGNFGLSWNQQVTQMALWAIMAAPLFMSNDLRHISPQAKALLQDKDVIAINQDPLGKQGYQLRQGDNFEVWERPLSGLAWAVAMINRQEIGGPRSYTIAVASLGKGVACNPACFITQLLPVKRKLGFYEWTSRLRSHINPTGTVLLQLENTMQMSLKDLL

| Compound | Potency |
| --- | --- |
| Cn1c(=O)c2nc(Cl)c(-c3ccccc3)nc2n(C)c1=O | inconclusive: 35.5 µM [activator, single point] |
| COC(=O)C1=C(CSc2nc3ccccc3s2)NC(=O)NC1c1ccc(F)cc1 (stereo unspecified) | inconclusive: 11.2 µM [inhibitor, single point] |
| CCc1nnc(NC(=O)c2ccncc2)s1 | inactive |
| O=c1c(-c2nnc(SCc3ccc(Cl)cc3)o2)cccn1Cc1ccccc1 | inconclusive: 35.5 µM [activator, partial curve] |
| COc1ncc2nc(-c3ccc(F)cc3)c(=O)n(C[C@H]3CCCO3)c2n1 | inconclusive: 44.7 µM [activator, single point] |
| Cc1ccc(N(C)S(=O)(=O)c2cccc(C(=O)Oc3ccc4c(C)cc(=O)oc4c3)c2)cc1 | inconclusive: 31.6 µM [activator, partial curve] |
| CC(C)(C)S(=O)(=O)c1cnc(-c2cnccn2)nc1N | inconclusive: 39.8 µM [inhibitor, single point] |
| CC(C=O)Cc1ccc(C(C)(C)C)cc1 (stereo unspecified) | inactive |
| CC1C2(C)OC(=N)C(C#N)(C(C)O2)C1(C#N)C#N (stereo unspecified) | inconclusive: 31.6 µM [activator, partial curve] |
| CS(=O)(=O)N(CC(=O)NCCSC1CCCCC1)c1ccc2c(c1)OCO2 | inactive |
| CCCC/C(=N\NC(=O)c1ccc(Br)o1)c1ccccc1 | inactive |
| COc1ccc(C(c2c(O)nc(SC)n(C)c2=O)c2c(O)nc(SC)n(C)c2=O)cc1O | inactive |
| O=C(O)c1cc(-c2ccco2)nc2ccccc12 | inconclusive: 35.5 µM [activator, single point] and inconclusive: 22.4 µM [activator, partial curve, poor fit] |
| O=C(/C=C/c1ccccc1)OC1CC(O)C2(O)C=CO[C@@H](OC3OC(CO)C(O)C(O)C3O)C12 (stereo partly specified) | inconclusive: 44.7 µM [inhibitor, single point] |
| COc1ccc(-c2cc(C(F)(F)F)n3nc(C(=O)NCCCN4CCOCC4)cc3n2)cc1 | inconclusive: 39.8 µM [activator, partial curve] |
| CCOC(=O)CCNCc1ccc(F)cc1 | inactive |
| C=CCn1c(=N)c(C(=O)NCCCOC)cc2c(=O)n3ccccc3nc21 | inconclusive: 28.2 µM [activator, partial curve] |
| Fc1ccc(-c2cc(C(F)(F)F)n3ncnc3n2)cc1 | inactive |
| CNC(=O)c1ccc(-c2ccc(OC)cc2)s1 | inconclusive: 28.2 µM [activator, partial curve] |
| CCn1c(CSCc2ccc(C)cc2)nnc1SCC(=O)NCc1ccccc1 | inconclusive: 50.1 µM [activator, single point] |
| Cc1cccc(S(=O)(=O)Nc2ccc(-c3nc4ccc(C)cc4s3)cc2)c1 | inconclusive: 28.2 µM [activator, partial curve] |
| CC1CCCN(Cc2c(O)ccc3c4c(c(=O)oc23)CCCC4)C1 (stereo unspecified) | inconclusive: 35.5 µM [activator, partial curve] |

| Compound | Potency |
| --- | --- |
| COC(=O)C1=CN(Cc2cccs2)C=C(C(=O)OC)C1c1cccc(Cl)c1 | inconclusive: 39.8 µM [activator, partial curve] |
| O=S(=O)(O)c1ccc(N2N=C(c3ccccc3)CC2c2ccccc2)cc1 (stereo unspecified) | inconclusive: 39.8 µM [activator, partial curve] |
| O=C(Nc1ccccn1)c1ccc(Br)c(S(=O)(=O)N2CCCCC2)c1 | inconclusive: 31.6 µM [activator, single point] |
| CC1CCC2(CC1)NC(=O)N(CC(=O)c1cn(CCC#N)c3ccccc13)C2=O (stereo unspecified) | inactive |
| COc1cccc2c3c(c(C)nc12)CCN3c1ccccc1 | inconclusive: 50.1 µM [activator, single point] |
| CCCNC(=O)c1c(N)n(-c2cccc(OC)c2)c2nc3ccccc3nc12 | inconclusive: 39.8 µM [activator, partial curve] |
| COc1cccc(-c2cc(C(F)(F)F)c(C#N)c(=O)[nH]2)c1 | inconclusive: 39.8 µM [activator, partial curve] |
| COC(=O)C(C)NC(=O)c1ccc(C(C)(C)C)cc1 (stereo unspecified) | inactive |
| CCOC(=O)c1ccc(NC(=O)CCc2nc(-c3ccc(Cl)cc3)no2)cc1 | inconclusive: 44.7 µM [inhibitor, single point] |
| COc1ccc(CNc2ccnc(-c3ccccc3Cl)n2)c(OC)c1 | inconclusive: 50.1 µM [inhibitor, single point] |
| COc1ccc(-n2c(=O)c(-c3cccs3)nc3cnc(N4CCOCC4)nc32)cc1 | inconclusive: 39.8 µM [inhibitor, partial curve] |
| Cc1cccc(N(C)S(=O)(=O)c2cccc3nsnc23)c1 | inconclusive: 44.7 µM [inhibitor, single point] |
| NC(=S)NNc1ccc(Cl)c(Cl)c1 | inconclusive: 31.6 µM [inhibitor, single point] |
| CC(C)CCn1c(-c2nonc2N)nc2ccccc21 | inactive |
| COc1cc2c(cc1OC)C(C)N(C(=O)c1cc3c(s1)-c1c(C)cccc1OC3)CC2 (stereo unspecified) | inconclusive: 31.6 µM [activator, single point] |
| Cn1c(=O)n(C)c2cc(C(=O)c3ccccc3)ccc21 | inconclusive: 31.6 µM [inhibitor, partial curve] |
| Cc1ccc(NC(=O)C(Nc2cccc(C)c2)c2ccccc2)cc1 (stereo unspecified) | inconclusive: 50.1 µM [activator, single point] |
| CCCCn1c(=NC(=O)c2ccco2)c(C(=O)OCC)cc2c(=O)n3ccccc3nc21 | inconclusive: 39.8 µM [activator, partial curve] |
| O=c1cc(-c2cccc(O)c2)oc2ccc(O)cc12 | inconclusive: 44.7 µM [inhibitor, single point] |
| Cc1n[nH]c(=O)n1-c1ccc(OCc2ccccc2)cc1 | inactive |
| FC(F)(F)c1ccccc1-c1nccc(NCCN2CCOCC2)n1 | inactive |
| Cc1ccc(C2NC(=O)c3c(sc4c3CCN(C)C4)N2)o1 (stereo unspecified) | inconclusive: 31.6 µM [activator, single point] |

| Compound | Potency |
| --- | --- |
| CNc1nnc(-c2ccc(N(C)C)cc2)s1 | inconclusive: 35.5 µM [activator, partial curve] |
| CCN(CC)CCCNC(=O)c1cn(CCOC)c(=O)c2c1c1ccccc1n2C | inconclusive: 44.7 µM [activator, single point] |
| COCCn1c(=O)c(-c2cccc(C#N)c2)nc2cnc(N3CCN(C)CC3)nc21 | inactive |
| COc1ccc(OC)c(-c2cc(C(=O)Nc3c(C)nn(Cc4ccccc4)c3C)no2)c1 | inconclusive: 35.5 µM [inhibitor, single point] |
| Cc1cccc(NC(=O)CNC(=O)COc2cc(F)ccc2[N+](=O)[O-])c1C | inactive |
| CCOc1ccc(C(C)=O)cc1COC(=O)C1=COCCO1 | inactive |
| O=C(N/N=C/c1ccc(F)cc1)c1c(O)c2ccccc2[nH]c1=O | inactive |
| COc1cccc(Oc2c(C)oc3c(CN4CCCC4)c(O)ccc3c2=O)c1 | inconclusive: 35.5 µM [activator, partial curve] |
| CCN(CC)c1ccc(-c2nn3c(-c4n[nH]c5c4CCC5)nnc3s2)cc1 | inconclusive: 35.5 µM [activator, partial curve] |
| COC(=O)C1=CNC=C(C(=O)OC)C1c1cccc(OC)c1 | inconclusive: 35.5 µM [activator, partial curve] |
| O=C(Cn1nnc(-c2ccccc2)n1)N1CCN(S(=O)(=O)c2ccc(Cl)cc2)CC1 | inactive |
| Cc1cccc(NC(=O)Cn2c(=O)n3nc(CCn4nc(C)cc4C)nc3c3ccccc32)c1 | inactive |
| CC(C)CCCC(C)CCCC(C)CCCC(C)C(=O)O (stereo unspecified) | inactive |
| COCC(C)OC(=O)c1c(N)n(CC(C)C)c2nc3ccccc3nc12 (stereo unspecified) | inconclusive: 28.2 µM [activator, partial curve] |
| COc1cc(Cn2c(N)c(C#N)c3nc4ccccc4nc32)cc(OC)c1 | inconclusive: 35.5 µM [activator, partial curve] |
| CC1CN(C(=O)CSc2nnc(-c3ccc(Cl)cc3)n2C)CC(C)O1 (stereo unspecified) | inconclusive: 50.1 µM [inhibitor, single point] |
| c1ccc(C[n+]2cccc3c4ccccc4ccc32)cc1 | inconclusive: 35.5 µM [activator, single point] |
| CSCC[C@@H]1NC(=O)[C@@H](NC(=O)[C@H](CCCNC(=N)N)NC(=O)[C@H](CC(C)C)NC(=O)[C@H](CCSC)NC(=O)[C@H](CC(=O)O)NC(=O)[C@H](Cc2ccccc2)NC(=O)[C@@H](N)CC(=O)O)CSSC[C@@H](C(=O)N[C@@H](Cc2c[nH]c3ccccc23)C(=O)N[C@@H](CCC(N)=O)C(=O)N[C@@H](Cc2ccc(O)cc2)C(=O)O)NC(=O)[C@@H]2CCCN2C(=O)[C@H](CCCNC(=N)N)NC(=O)[C@H](Cc2ccccc2)NC(=O)[C@H](C(C)C)NC(=O)[C@H](CCCNC(=N)N)NC(=O)CNC(=O)[C@H](CC(C)C)NC1=O | inactive |
| Clc1ccc(-c2cn3cccnc3n2)cc1 | inconclusive: 15.8 µM [activator, partial curve] |
| COCCCNC(=O)COC(=O)c1ccc(-c2nc3ccccc3s2)s1 | inconclusive: 35.5 µM [activator, single point] |
| CC(=O)Nc1ccc(S(=O)(=O)C(C#N)c2nc3ccccc3nc2NCCO)cc1 (stereo unspecified) | inconclusive: 39.8 µM [activator, partial curve] |
| Cc1cc2n(n1)SC(Nc1cccc3ccccc13)N2 (stereo unspecified) | inactive |
